# Positions count from the first letter of the chain named. The list shows a part of the results.
# T1: RBFOX1 RRM (Homo sapiens, UniProt Q9NWB1 109-208)
# T1 sequence: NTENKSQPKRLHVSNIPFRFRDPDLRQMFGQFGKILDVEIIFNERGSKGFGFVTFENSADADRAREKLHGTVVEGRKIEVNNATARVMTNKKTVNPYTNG
# B1: ACAGAAU (DNA:RNA)
# RNA: GGGAGACCGGAAUUCAGAUUGUCCACAGAAUUUAAAUCCCGUCGUAGCCACCA
# DNA 1: CAATCTGAATTCCGGTCTCCC
# DNA 2: TGGTGGCTACGACGGGATT
# B2: GGAUUUC (DNA:RNA)
# RNA: B1 RNA with A25G, C26G, G28U, A29U, A30U, U31C
# DNA 1: CAATCTGAATTCCGGTCTCCC
# DNA 2: TGGTGGCTACGACGGGATT
# B3: UUGGACG (DNA:RNA)
# RNA: B1 RNA with A25U, C26U, A27G, A30C, U31G
# DNA 1: CAATCTGAATTCCGGTCTCCC
# DNA 2: TGGTGGCTACGACGGGATT
# B4: AUAUGCA (DNA:RNA)
# RNA: B1 RNA with C26U, G28U, A29G, A30C, U31A
# DNA 1: CAATCTGAATTCCGGTCTCCC
# DNA 2: TGGTGGCTACGACGGGATT
# B5: ACACUGG (DNA:RNA)
# RNA: B1 RNA with G28C, A29U, A30G, U31G
# DNA 1: CAATCTGAATTCCGGTCTCCC
# DNA 2: TGGTGGCTACGACGGGATT
# B6: GACCAGA (DNA:RNA)
# RNA: B1 RNA with A25G, C26A, A27C, G28C, A30G, U31A
# DNA 1: CAATCTGAATTCCGGTCTCCC
# DNA 2: TGGTGGCTACGACGGGATT
# B7: ACUGUGC (DNA:RNA)
# RNA: B1 RNA with A27U, A29U, A30G, U31C
# DNA 1: CAATCTGAATTCCGGTCTCCC
# DNA 2: TGGTGGCTACGACGGGATT
# B8: CGUAUGU (DNA:RNA)
# RNA: B1 RNA with A25C, C26G, A27U, G28A, A29U, A30G
# DNA 1: CAATCTGAATTCCGGTCTCCC
# DNA 2: TGGTGGCTACGACGGGATT
# B9: UCCCUCU (DNA:RNA)
# RNA: B1 RNA with A25U, A27C, G28C, A29U, A30C
# DNA 1: CAATCTGAATTCCGGTCTCCC
# DNA 2: TGGTGGCTACGACGGGATT
# B10: UUACAGG (DNA:RNA)
# RNA: B1 RNA with A25U, C26U, G28C, A30G, U31G
# DNA 1: CAATCTGAATTCCGGTCTCCC
# DNA 2: TGGTGGCTACGACGGGATT
# B11: GAACGCG (DNA:RNA)
# RNA: B1 RNA with A25G, C26A, G28C, A29G, A30C, U31G
# DNA 1: CAATCTGAATTCCGGTCTCCC
# DNA 2: TGGTGGCTACGACGGGATT
# B12: CAGGUUU (DNA:RNA)
# RNA: B1 RNA with A25C, C26A, A27G, A29U, A30U
# DNA 1: CAATCTGAATTCCGGTCTCCC
# DNA 2: TGGTGGCTACGACGGGATT
# B13: CAAAAAA (DNA:RNA)
# RNA: B1 RNA with A25C, C26A, G28A, U31A
# DNA 1: CAATCTGAATTCCGGTCTCCC
# DNA 2: TGGTGGCTACGACGGGATT
# B14: GGGGAGA (DNA:RNA)
# RNA: B1 RNA with A25G, C26G, A27G, A30G, U31A
# DNA 1: CAATCTGAATTCCGGTCTCCC
# DNA 2: TGGTGGCTACGACGGGATT
# B15: CGCCCCU (DNA:RNA)
# RNA: B1 RNA with A25C, C26G, A27C, G28C, A29C, A30C
# DNA 1: CAATCTGAATTCCGGTCTCCC
# DNA 2: TGGTGGCTACGACGGGATT
# B16: ACCGCAU (DNA:RNA)
# RNA: B1 RNA with A27C, A29C
# DNA 1: CAATCTGAATTCCGGTCTCCC
# DNA 2: TGGTGGCTACGACGGGATT
# B17: GUAUGCU (DNA:RNA)
# RNA: B1 RNA with A25G, C26U, G28U, A29G, A30C
# DNA 1: CAATCTGAATTCCGGTCTCCC
# DNA 2: TGGTGGCTACGACGGGATT
# B18: UUGUCUC (DNA:RNA)
# RNA: GGGAGACCGGAAUUCAGAUUGUCCUUGUCUCUUAAAUCCCGUCGUAGCCACCA
# DNA 1: CAATCTGAATTCCGGTCTCCC
# DNA 2: TGGTGGCTACGACGGGATT
# B19: GUAGCUG (DNA:RNA)
# RNA: B18 RNA with U25G, G27A, U28G, C31G
# DNA 1: CAATCTGAATTCCGGTCTCCC
# DNA 2: TGGTGGCTACGACGGGATT
# B20: CUAGAUC (DNA:RNA)
# RNA: B1 RNA with A25C, C26U, A30U, U31C
# DNA 1: CAATCTGAATTCCGGTCTCCC
# DNA 2: TGGTGGCTACGACGGGATT
# B21: AACGCUC (DNA:RNA)
# RNA: B18 RNA with U25A, U26A, G27C, U28G
# DNA 1: CAATCTGAATTCCGGTCTCCC
# DNA 2: TGGTGGCTACGACGGGATT
# B22: UACCCUA (DNA:RNA)
# RNA: B18 RNA with U26A, G27C, U28C, C31A
# DNA 1: CAATCTGAATTCCGGTCTCCC
# DNA 2: TGGTGGCTACGACGGGATT
# B23: UGAUUCG (DNA:RNA)
# RNA: B18 RNA with U26G, G27A, C29U, U30C, C31G
# DNA 1: CAATCTGAATTCCGGTCTCCC
# DNA 2: TGGTGGCTACGACGGGATT
# B24: AAAUUCU (DNA:RNA)
# RNA: B1 RNA with C26A, G28U, A29U, A30C
# DNA 1: CAATCTGAATTCCGGTCTCCC
# DNA 2: TGGTGGCTACGACGGGATT
# B25: GUAGGUA (DNA:RNA)
# RNA: B1 RNA with A25G, C26U, A29G, A30U, U31A
# DNA 1: CAATCTGAATTCCGGTCTCCC
# DNA 2: TGGTGGCTACGACGGGATT
# B26: GUCCAAC (DNA:RNA)
# RNA: B1 RNA with A25G, C26U, A27C, G28C, U31C
# DNA 1: CAATCTGAATTCCGGTCTCCC
# DNA 2: TGGTGGCTACGACGGGATT
# B27: AUCGUCU (DNA:RNA)
# RNA: B1 RNA with C26U, A27C, A29U, A30C
# DNA 1: CAATCTGAATTCCGGTCTCCC
# DNA 2: TGGTGGCTACGACGGGATT
# B28: AGUCCGG (DNA:RNA)
# RNA: B1 RNA with C26G, A27U, G28C, A29C, A30G, U31G
# DNA 1: CAATCTGAATTCCGGTCTCCC
# DNA 2: TGGTGGCTACGACGGGATT
# B29: CCAACAU (DNA:RNA)
# RNA: B1 RNA with A25C, G28A, A29C
# DNA 1: CAATCTGAATTCCGGTCTCCC
# DNA 2: TGGTGGCTACGACGGGATT
# B30: GCAACUC (DNA:RNA)
# RNA: B18 RNA with U25G, U26C, G27A, U28A
# DNA 1: CAATCTGAATTCCGGTCTCCC
# DNA 2: TGGTGGCTACGACGGGATT
# B31: CGCAAUG (DNA:RNA)
# RNA: B1 RNA with A25C, C26G, A27C, G28A, A30U, U31G
# DNA 1: CAATCTGAATTCCGGTCTCCC
# DNA 2: TGGTGGCTACGACGGGATT
# Target: T1, RBFOX1 RRM
# Assay: EMSA; HiTS-Eq, 1 nM pool, 10 min; buffer printed only for the single-RNA assays: 10 mM Tris pH 7.5, 150 mM NaCl, 3.4 mM EDTA, 0.001% NP-40, 30 C
# Conditions: tags: His6 N-terminal (pET28a); label: 5' 32P
# How it was run: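 These values rest on relative association constants, computed from read-count changes of each RNA species versus the control reaction and normalised to the cognate motif. Reads came from free RNA recovered by 8% native PAGE after purified RbFox RRM (wild type or mutant) at increasing concentrations was equilibrated for 10 min in 50 µL with 1 nM of a 5′-radiolabelled pool with 7 randomized nucleotides and DNA-annealed flanks.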
row,Binder,binding signal
1,B1,0.000791 KA relative to UGCAUGU
2,B2,0.0284 KA relative to UGCAUGU
3,B3,0.00919 KA relative to UGCAUGU
4,B4,0.0145 KA relative to UGCAUGU
5,B5,0.00817 KA relative to UGCAUGU
6,B6,0.0115 KA relative to UGCAUGU
7,B7,0.0129 KA relative to UGCAUGU
8,B8,0.0134 KA relative to UGCAUGU
9,B9,0.00263 KA relative to UGCAUGU
10,B10,0.00329 KA relative to UGCAUGU
11,B11,0.0153 KA relative to UGCAUGU
12,B12,0.0116 KA relative to UGCAUGU
13,B13,0.00226 KA relative to UGCAUGU
14,B14,0.0242 KA relative to UGCAUGU
15,B15,0.00718 KA relative to UGCAUGU
16,B16,0.00667 KA relative to UGCAUGU

row,Binder,binding signal
1,B17,0.018 KA relative to UGCAUGU
2,B18,0.0203 KA relative to UGCAUGU
3,B19,0.0129 KA relative to UGCAUGU
4,B20,0.0087 KA relative to UGCAUGU
5,B21,0.00593 KA relative to UGCAUGU
6,B22,0.00244 KA relative to UGCAUGU
7,B23,0.0228 KA relative to UGCAUGU
8,B24,0.0025 KA relative to UGCAUGU
9,B25,0.00797 KA relative to UGCAUGU
10,B26,0.00461 KA relative to UGCAUGU
11,B27,0.0052 KA relative to UGCAUGU
12,B28,0.00695 KA relative to UGCAUGU
13,B29,0.000219 KA relative to UGCAUGU
14,B30,0.00821 KA relative to UGCAUGU
15,B31,0.00995 KA relative to UGCAUGU

# Source: paper PMC9911399, “Two distinct binding modes provide the RNA-binding protein RbFox with extraordinary sequence specificity”
